Experimental data: the supplement of paper PMC11417369
Some of the results follow.

test system: PF3D7_0420300 AP2 domain 1 (GST-tagged); assay: gcPBM binding intensity (ln(normalized median fluorescence intensity)); higher = stronger DNA binding
In short: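 Binding of GST-tagged P. falciparum DNA-binding domains, expressed in E. coli and used at about 25 μg on average, was carried out for 1 h in 1× PBS containing 1% milk, 0.2 mg/ml BSA, 0.5% salmon testes DNA and 0.03% Triton X-100. The target was an Agilent 4 × 180k array of primer-extended double-stranded 36-bp intergenic genomic probes plus negative controls, read with Alexa488 anti-GST antibody at 488 nm. Binding intensity is the highest Masliner-normalised natural-log median intensity across replicate spots of either probe orientation.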

Row | Sequence | gcPBM binding intensity (ln)
1 | ATATATTTATATAAATGTACACGTGAATATATAATA [XGTACX_site1166] | 9.33
2 | TATATAAAAAGTAATTGTACATATATATATATATAT [XGTACX_site7953] | 9.03
3 | TATGCAAATTAATAATGTACGAAATATTTATAATTT [XGTACX_site2324] | 9.02
4 | AAAAGGAACGGACACACACACATATATATATATATA [CACACA_site5894] | 9.82
5 | AATAAATTAGAAGGATGTACTTTGTTTAATATAGAG [XGTACX_site1943] | 9.23
6 | TAATATAATCTGAGTGCACACAAATAAATAAACATA [CACACA_site8032] | 9.54
7 | AGGTTATATATGAACAAAAATAAAATATTCATAGGC [TGCATGCA_negctrl_site46] | 9.61
8 | GTTATACATTTGAAAAGTACTCATGATTTTTTTTTT [XGTACX_site8177] | 9.24
9 | AATATTCAATATAAAGTGCATTATTGTGCCCCTAAT | 9.06
10 | TTTTTATTGTTATACTTATATTATTTTATGATTAAA [XGTACX_negctrl_site262] | 9.15
11 | ATAAAAATCAAAAAAAATACATAATAGTAATAATAA [GTGCAC_negctrl_site481] | 9.46
12 | AAATAATAAAGTATAACACACATATTTATTTATATA [CACACA_site7822] | 9.39
13 | AAATAGAAAAAATATACACACACTTATTAAATAAAA [CACACA_site3313] | 9.86
14 | CTGATATATTATTTATCTGAATATATTAATATGTAT [GTGCAC_negctrl_site82] | 9.11
15 | AAAATTAAAAAAATATGTACTTATGGGTAACATCAT [XGTACX_site5548] | 9.24
16 | TATCTTCATATATGGTGTACAGATTTTTTTTTTTTT [XGTACX_site5545] | 9.22
17 | ATAAAATTATTATATACATGCAAAATTAATATATTG [TGCATGCA_site507] | 9.03
18 | AAAATAAAAAAAATGAATTAGTTAAATGAAAAATAA [CACACA_negctrl_site1294] | 9.27
19 | TTTCTTTTTTTGGGCACACAAAATTTTCTCATTTTA [CACACA_site68] | 9.22
20 | ATTATATAATAATGCATGCACCTTATTTTCATTTCA [GTGCAC_site9922] | 9.28
21 | TATTGAAAGTGAATTATAACATTAAAAATATATATA [TGCATGCA_negctrl_site566] | 9.11
22 | TGAATATGTAAATGCACACCAAAAAAAAAAAAAAAA [CACACA_site3566] | 8.98

Row | Sequence | gcPBM binding intensity (ln)
23 | CAATATAAAAGACACACACACAAACATATATTTATA [CACACA_site7697] | 10.2
24 | GAAGGAAATAAATCAACACACATATATTATAGATAT [CACACA_site7095] | 9.63
25 | ATAATGTAAAATAAATGTACGCAATATATAAAAAAT [XGTACX_site5747] | 9.68
26 | AAAAAATTTTAATATGCATGTAATTTTGCTTTTTCA [TGCATGCA_site1044] | 8.79
27 | AGCACGCACAGACACACACACATATTTATATTTATA [CACACA_site6291] | 9.94
28 | TAATATAGGGGTGTTCAAATAAATTTTGTTATTTTT [CACACA_negctrl_site1203] | 9.47
29 | TCATTTTAAGGAAAAAGTACAAAATAATATGTTCCT [XGTACX_site1903] | 9.05
30 | AATAGAAAAAAAAAATGTACAAAATGTTTATAAAAA [XGTACX_site4635] | 9.38
31 | GATGTGTAAATAAGGATATATAACAATCAACAAAAC [XGTACX_negctrl_site494] | 9.72
32 | ACGAATATAGGATGTTTGCACTGTACCAATAAATGA [GTGCAC_site9808] | 9.24
33 | ACCTATTTCAAACACACACACACACCCACAAACATA [CACACA_site977] | 10.4
34 | TTCTTAATACAAATATGTACATATATATATATATAT [XGTACX_site757] | 9.21
35 | AAATTACCCTTGTGTACACATATATTATCTGTATTA [CACACA_site4514] | 9.69
36 | AAATGAATATAAAATATACACACTTATATATTGAAT [CACACA_site202] | 9.47
37 | GCTTATTAATATCATACACACATAGATATATTTATA [CACACA_site3104] | 9.54
38 | TAAAAAATATAAACTGCACACACACTAATAAAGAAA [CACACA_site8119] | 10.1
39 | ATTCGTCACATTTTTTGATATATATATATATATATA [CACACA_negctrl_site1785] | 9.41
40 | AATATATAAATGTTGTGTACTAAGCAATATATTTTA [XGTACX_site2483] | 9.32
41 | CTATTATCGGTTCCTACACACAAATATATATGTCTA [CACACA_site3579] | 9.87
42 | ATATAGTTGTCATATTGTACACTTTAGGGTTGGTTA [XGTACX_site7339] | 9.31
43 | CAATGGTACATACATACACACACACTAATAAAAAAA [CACACA_site8450] | 9.94
44 | TACAATCCATATTGTTGTACATTTATAAAATTTACA [XGTACX_site3053] | 8.97

Row | Sequence | gcPBM binding intensity (ln)
45 | GTATATATATAAGAAGAAATATATAAATAAAATATA [CACACA_negctrl_site503] | 9.34
46 | TATTATGTTTATTAAACATGCATATATTTATTTATA [TGCATGCA_site187] | 9.15
47 | ATATTTTATCATGTTTAATATTTATGTGGACATAAA [GTGCAC_negctrl_site275] | 9.11
48 | ACATTTTATATATGTAGTACATATTATAGATAATTT [XGTACX_site1976] | 9.12
49 | AGTTGGATACGAAGATGTACAATAATAATAATTAAG [XGTACX_site3561] | 9.33
50 | ATCAAAAACATACCTACACACACAATATGTATATAT [CACACA_site9171] | 10
51 | TATTTTATTTTTTTATGTACACAAAAAAAAAAAAAA [XGTACX_site945] | 8.63
52 | TCACTATAATAATTTACACACATTTTAAGAAAATGG [CACACA_site5867] | 9.25
53 | AAGGATAATATATTAGAACACACATATATATGTAAA [CACACA_site7942] | 9.56
54 | TTTATATAAAATTATTGTACAGTTTTAATATTTTAA [XGTACX_site6807] | 9.01
55 | TACATACACAAATACACACACAAATACATACACAAA [CACACA_site704] | 10.1
56 | TAAACAAATAAATATTGTACATTTTTTCCTTTTAAT [XGTACX_site5594] | 9.04
57 | CACAGACACGGACACACACACATATATAATATATAT [CACACA_site4495] | 9.98
58 | AAGATATGAACATTTTGTACTTAAAAATTCAATATT [XGTACX_site7103] | 9.01
59 | GATTATACAAAATATACACACGTGTACAGAAATATT [CACACA_site8305] | 9.56
60 | ATATATTTATTTATATGTACATATTATATATTATAG [XGTACX_site3371] | 9.35
61 | TTATATTAATTTTGTTGTACTATTTGTGCATTAAAT [XGTACX_site4790] | 9.21
62 | TTTATTAATTTATAGTGTACATATTAATAATATATT [XGTACX_site7949] | 9.09
63 | ATATATATTATATATTGTACATATTATATTCATTAT [XGTACX_site1766] | 9.27
64 | AAAAAATAAAACATATATAATATATAATATATATAT [GTGCAC_negctrl_site447] | 9.23
65 | AATGTGAAAACGTGTACACATTTTATTTAATTTATC [CACACA_site5966] | 9.28
66 | ATAAATTATATTATTGAACACACGTTTGGTAATGTT [CACACA_site2662] | 9.3

Row | Sequence | gcPBM binding intensity (ln)
67 | AAAAAAATAATAAAAAGTACAAAATGTAGAAAATGT [XGTACX_site5018] | 9.91
68 | AAGTTATTTATATATACACACAAATATAAATAATAT [CACACA_site1228] | 9.57
69 | ATTATAATTACTCTAGTGCATTATAAATATGAATAA | 8.93
70 | CTCAAATTTATTAGTGGTACATAACCAAGGAAATAA [XGTACX_site225] | 9.01
71 | CCTAGAAAAAAGAACTGTACATATATATATAAATAT [XGTACX_site1680] | 9.25
72 | TTAATTGAAACTTATTGTACTTTTTTTTTTTTTTTT [XGTACX_site8162] | 8.89
73 | ATAAATAAAAATAGAACACACATATGTTTTTTTTTT [CACACA_site3556] | 9.39
74 | TGAAAAAATATAATTTGTACATATCAGGCAAAAATG [XGTACX_site1824] | 9.35
75 | ATATGCAGAGACTGTTTGCACTTTTTTATTTTATGT [GTGCAC_site9695] | 9.45
76 | AGGACAAGGGTTACATGTACATATATATATATATAT [XGTACX_site901] | 9.96
77 | TATTAATAATTAAGTTGTACATTAATTAATATACTG [XGTACX_site6994] | 9.16
78 | TTTAATATTAATAATTGTACATTTTCATAAATACGC [XGTACX_site2837] | 8.95
79 | TTTAAACCTTAATATTGTACGCAAAAAAAAAAAGAA [XGTACX_site3757] | 9.19
80 | TTTATGTAGGAACTAACACACATTGTAAGATTCAGA [CACACA_site1998] | 9.3
81 | GGAACTTTTGGAGGTGCATGCGGAGCAATCTTTTCA [TGCATGCA_site454] | 9.05
82 | CATATCAATAATATCACACATATATGTGATTTTATT [CACACA_site5053] | 9.28
83 | TTATTAATTTATAAATGTACGAATTTTTTATTTAAC [XGTACX_site7605] | 8.97
84 | CCCCTTAATTAAAGGAGTACTATTTGTGAATAATAT [XGTACX_site4715] | 9.48
85 | TATAAATATAAAAGGAGTACAAATATATATATATAT [XGTACX_site1386] | 9.44
86 | AGTTATAATAAAAAATGTACGTATTATCATTAAGAA [XGTACX_site4244] | 9.29
87 | TTTTTTTTTATAGCTAAACACACATAAGAATATATG [CACACA_site8282] | 9.14
88 | AAAAAAATTAAACATACACACGTTACTATTTTTATA [CACACA_site5009] | 9.34
